pIC50: −log10 of the molar value.
What follows are compounds tested on C33-A cells (HPV negative cervical tumor line) (assay: cells). Details: Homo sapiens, C-33-A, 72 h.

`CC(C)C(NC1=CC(=O)c2ccccc2C1=O)C(=O)O` (stereo not shown) [Compound 3b, 2-((1,4-dioxo-1,4-dihydronaphthalen-2-yl)amino)-3-methylbutanoic acid] was tested. Which pIC50 did it give?
Its pIC50 is 4.26.

`O=C1C=C(NC(Cc2ccc(O)cc2)C(=O)O)C(=O)c2ccccc21` (stereo not shown) [Compound 3a, 2-((1,4-dioxo-1,4-dihydronphthalen-2-yl)amino)-3-(4-hydroxyphenyl) propanoic acid] was tested. Which pIC50 did it give?
Its pIC50 is 4.25.

`O=C1C=C(NC(Cc2c[nH]c3ccccc23)C(=O)O)C(=O)c2ccccc21` (stereo not shown) [Compound 3c, 2-((1,4-dioxo-1,4-dihidronaphthalen-2-yl)amino)-3-(1H-indol-3-yl)propanoic acid] was tested. Which pIC50 did it give?
Its pIC50 is 4.67.

How did the pIC50 turn out when `O=C1C(Cl)=C(NC(Cc2c[nH]c3ccccc23)C(=O)O)C(=O)c2ccccc21` (stereo not shown) [Compound 4c, 2-((3-chloro-1,4-dioxo-1,4-dihydronaphthalen-2-yl)amino)-3-(1H-indol-3-yl)propanoic acid] was run?
The pIC50 was roughly 8.46.
